Measurements published in PubChem BioAssay AID1508642 (National Center for Advancing Translational Sciences (NCATS), 2021).
The whole screen tested about 43,000 compounds, of which about 200 (0.47%) were called active. Roughly 12% stayed inconclusive and do not appear here. Calls come from the whole dose curve; as a rule, active = well fitted cell-killing curve with a large enough effect; inconclusive = small, poorly fitted or top-dose-only effect, or effect the other way; inactive = flat fitted curve, though single readings scatter. This is one part of the list.

Assay: Cell viability qHTS assay in S16 Pmp22-F2sN cells; note: nearly all actives have a fitted effect of over 65% in size
Settings: S16 Pmp22-F2sN Schwann cells viability, CellTiter-Glo, 24 h; series mostly up to 57.5 µM; activity change, negative = cytotoxicity: at the top concentration
In short: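 Viability was measured by CellTiter-Glo luminescence (15 min, room temperature). This followed 24 h at 37 °C of compound exposure (23 nL pin transfer) in S16 Pmp22-F2sN Schwann cells, 500-1,000 per well.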
% is set by controls: 0 for no effect and ±100 for the full control effect.

Row | Structure (SMILES) | activity change, negative = cytotoxicity
1 | Cc1cc(C)cc(-n2c(C)cc(C(=O)C(=O)Nc3nnc(C)s3)c2C)c1 | inactive: -11.1%
2 | CCOC(=O)c1cc2c(=O)n3ccccc3nc2n(Cc2ccco2)c1=NC(=O)c1ccc(C)c(C)c1 | inactive: -3.22%
3 | CN(c1ccccc1)S(=O)(=O)c1nnc(NC(=O)COc2ccccc2)s1 | inactive: -16.8%
4 | O=C(Cn1c(=O)oc2cc(S(=O)(=O)N3CCCCCC3)ccc21)Nc1ccc(F)cc1F | inactive: 10.3%
5 | O=C(Nc1cc2c(cc1C(=O)c1cccc(Br)c1)OCCO2)c1ccccc1F | inactive: 7.19%
6 | COc1ccccc1NC(=O)CSc1nc(-c2ccc(C)cc2)nc2c1Cc1c(CO)cnc(C)c1O2 | inactive: -2.78%
7 | Cc1nn2c(=O)cc(COC(=O)c3ccc(NC(=O)c4cccc(Br)c4)cc3)nc2s1 | inactive: -1.84%
8 | CCOC(=O)c1c(S(=O)(=O)NCC(=O)N2CCN(c3cc(C)ccc3C)CC2)c(C)n(C)c1C | inactive: -4.51%
9 | Cc1cccc(NC(=O)CCN2CCN(c3ccccc3F)CC2)c1 | inactive: 1.1%
10 | COC(=O)c1ccccc1NC(=O)Cn1c(=O)n(CCC(=O)NCc2ccccc2OC)c(=O)c2ccccc21 | inactive: 23.6%
11 | Cc1ccc(Cl)cc1NC(=O)CN1C(=O)CSc2ccc(S(=O)(=O)N3CCCC3)cc21 | inactive: 0.344%
12 | CC(C)c1ccc(CNc2nc(-c3ccco3)nn2C(=O)c2ccc([N+](=O)[O-])cc2)cc1 | inactive: 2.75%
13 | CSCCC(NS(=O)(=O)c1ccc2c(c1)oc(=O)n2C)C(=O)Nc1ccc(Cl)cc1 (stereo not given) | inactive: 1.59%
14 | COCc1cc(C)nc2sc3c(c12)NC(c1ccc(O)c(OC)c1)N(c1ccccc1)C3=O (stereo not given) | inactive: -0.786%
15 | COc1ccc(OCC(=O)N(Cc2cccs2)c2ccc(OC)cc2)cc1 | inactive: 0.919%
16 | C=Cc1ccc(Cn2c(=O)cc(C)c3c(C)nn(-c4ccccc4)c32)cc1 | inactive: 1.4%
17 | O=C(NC1(C(F)(F)F)C(=O)Nc2c1c(=O)[nH]c(=O)n2-c1ccccc1)c1ccccc1Cl (stereo not given) | inactive: 0.521%
18 | COc1cc(OC)cc(-c2cc3nc(C)c(CCC(=O)Nc4ccc(C(C)=O)cc4)c(C)n3n2)c1 | inactive: 2.63%
19 | CCOCCCNc1nc2ccccc2n2c(CC)nnc12 | inactive: -8.43%
20 | CCn1c(C)c(C)c2cc(C(=O)NCc3ccc(OC(C)C)cc3)ccc21 | inactive: -9.03%
21 | COc1cc2c(C(=O)N3CCN(c4cccc(C(F)(F)F)c4)CC3)cn(CC(C)C)c(=O)c2cc1OC | inactive: -26.9%
22 | COc1ccc(NC(=O)Cn2c(=O)n(Cc3ccc4c(c3)OCO4)c(=O)c3ccc(C(=O)NC4CCCCC4)cc32)cc1 | inactive: 3.38%
23 | Cc1c(Cl)cccc1NC(=O)CSc1nc2ncccc2o1 | inactive: -3.11%
24 | CC1Cn2c(C(=O)NCc3cccc(Br)c3)cc3cccc(c32)S1 (stereo not given) | inactive: -1.17%

Row | Structure (SMILES) | activity change, negative = cytotoxicity
25 | Cc1ccc(C(=O)O)cc1NC1(c2ccccc2)C(=O)c2ccccc2C1=O | inactive: -10.4%
26 | Cc1cccc(-c2nc3c(cnn3-c3ccccc3)c(=O)n2-c2ccc(Br)cc2)c1 | inactive: -5.96%
27 | COc1ccc2oc(-c3ccc(C)c(NC(=O)c4ccc(-c5ccccc5[N+](=O)[O-])o4)c3)nc2c1 | inactive: 0.0831%
28 | O=C(CCSCc1cccc(Cl)c1)NCc1ccc(F)cc1Cl | inactive: 1.19%
29 | CCc1ccccc1NC(=O)c1sc2nc(C)cc(COC)c2c1N | inactive: -7.63%
30 | Cc1ccc2[nH]c(CSc3nnc(NC(=O)c4ccccc4F)s3)cc(=O)c2c1 | inactive: -19.3%
31 | COc1ccccc1CNC(=O)C1CCCN(c2nnc(C)c3c(C)n(-c4ccccc4)nc23)C1 (stereo not given) | inactive: 0.422%
32 | Cc1nn(CC(=O)N2CCN(c3cccc(C(F)(F)F)c3)CC2)c(=O)c2cc3sccc3n12 | inactive: 4.16%
33 | Cc1ccc(S(=O)(=O)c2[nH]c(-c3ccccc3)nc2SCCC(=O)O)cc1 | inactive: -0.921%
34 | Cc1cccc(CCNC(=O)c2ccc(CSCc3cccc(Cl)c3)o2)c1 | inactive: -3.17%
35 | Cc1cccc(N(Cc2cc3ccccc3[nH]c2=O)C(=O)c2cccc(Cl)c2)c1 | inactive: 3.41%
36 | CCCn1c(=N)n(CC(O)COc2ccccc2OC)c2ccccc21 (stereo not given) | inactive: -9.74%
37 | Cc1ccc(N2CC(NC(=O)CCc3ccccc3)CC2=O)cc1C (stereo not given) | inactive: 5.39%
38 | CCn1ccc2c(OCC(=O)NCc3ccccc3)cccc2c1=O | inactive: -6.93%
39 | O=[N+]([O-])c1cc(-c2nc(-c3ccco3)no2)ccc1NCc1ccccc1 | inactive: 2%
40 | Cc1ccc(NC(=O)CC2Nc3cc(C)c(C)cc3NC2=O)c(C)c1 (stereo not given) | inactive: -15.7%
41 | CCOc1ccccc1NC(=O)C1=C(C)Nc2ncnn2C1c1ccc(NC(C)=O)cc1 (stereo not given) | inactive: 1.34%
42 | Cc1ccc(Cc2nc3ccccc3nc2SCC(=O)N2CCN(c3ccccc3)CC2)cc1 | inactive: -6.62%
43 | COc1ccc(S(=O)(=O)c2nnn(-c3ccccc3F)c2C)cc1 | inactive: 3.9%
44 | Cc1nn(CCCC(=O)NCc2ccc(OC(C)C)cc2)c(=O)c2c1sc1ccccc12 | inactive: 9.35%
45 | CCc1ccc(Sc2cc(C(=O)O)c3ccccc3n2)cc1 | inactive: 0.822%
46 | Cc1ccc2[nH]cc(C(c3ccccc3)c3ccc(C)s3)c2c1 (stereo not given) | inactive: -26.6%
47 | CCC(C)NC(=O)CCc1c(C)nc2c(c(C)nn2-c2ccc(C)cc2)c1C (stereo not given) | inactive: -6.15%
48 | CCOc1cccc(CC(=O)NCc2ccc3c(c2)CCN3C(C)=O)c1OCC | inactive: -3.29%

Row | Structure (SMILES) | activity change, negative = cytotoxicity
49 | COCC(C)NC(=O)c1cc2c(=O)n3cccc(C)c3nc2s1 (stereo not given) | inactive: -1.92%
50 | COc1ccc(NC(=O)CSc2nc3ccccc3n2CC(=O)N2CCCCC2C)cc1 (stereo not given) | inactive: -8.63%
51 | COc1ccc(-c2onc(C)c2C)cc1S(=O)(=O)NCc1ccc(C)o1 | inactive: -13.1%
52 | COc1ccc(CCCc2nnc(SCC(=O)Nc3cccc(C)c3)o2)cc1 | inactive: 1.06%
53 | Cc1nn(CCC(=O)NCc2ccc(Cl)cc2)c(=O)c2nn(-c3ccccc3)c(C)c12 | inactive: -18.7%
54 | CC(CNC(=O)C1CCN(C(=O)N2CCOc3ccc(Cl)cc32)CC1)c1ccccc1 (stereo not given) | inactive: -4.83%
55 | CCN(c1ccc(Cl)cc1)S(=O)(=O)c1nnc(NC(=O)c2ccccc2C)s1 | inactive: -5.4%
56 | CCOc1ccc(NC(=O)CN2C(=O)CC(C)Sc3ccccc32)cc1 (stereo not given) | inactive: 8.38%
57 | O=C(NCc1ccccc1)C1CCCN(S(=O)(=O)c2cccc3nsnc23)C1 (stereo not given) | inactive: 1.68%
58 | CC(C)(C)OC(=O)N1CCC(c2c(C(=O)Nc3ccc4c(c3)OCCO4)cnn2-c2ccc(Cl)cc2)CC1 | inactive: -7.29%
59 | O=C1CN(C(=O)COc2ccc(Cl)cc2)C(c2ccccc2)c2cc(Br)ccc2N1 (stereo not given) | inactive: -23.5%
60 | COc1ccc(CCn2c3c(c(=O)[nH]c2=O)C(NC(=O)c2ccccc2F)(C(F)(F)F)C(=O)N3)cc1OC (stereo not given) | inactive: 6.72%
61 | CC(C)Oc1ccccc1C1C=C(C(=O)O)Nc2ncnn21 (stereo not given) | inactive: 23.1%
62 | COc1cc2c(=O)n(Cc3ccccc3Cl)c(=O)n(CC(=O)Nc3ccc(C)c(C)c3)c2cc1OC | inactive: 24.1%
63 | Cc1cccc(C(=O)Nc2cc(-c3nc4cccnc4s3)ccc2C)c1 | inactive: 0.856%
64 | COc1ccc(C)cc1NC(=O)C1CCN(S(=O)(=O)c2ccc3[nH]c(=O)oc3c2)CC1 | inactive: -3.2%
65 | Cc1ccc2c(c1)C(Cc1ccccc1F)C(=O)N2 (stereo not given) | inactive: -1.44%
66 | COc1ccc(CCNC(=O)C(CC(C)C)N2Cc3ccccc3C2=O)c(OC)c1OC (stereo not given) | inactive: -2.36%
67 | CCn1cc(CCC(=O)NCc2ccc(C)cc2)c2ccccc21 | inactive: 4.73%
68 | CCCCC(=O)NCc1nc2cccnc2n1Cc1ccc(OC)cc1 | inactive: 3.49%
69 | COc1cccc(Nc2ccc3cc(S(=O)(=O)N4CCC(C)CC4)ccc3n2)c1 | inactive: -25%
70 | CCCOc1cccc(C(=O)Nc2cccc(-c3nc4ncccc4o3)c2C)c1 | inactive: -6.16%
71 | CCC1CN(C(=O)N2CCC(C(=O)NCc3ccc(N(C)C)cc3)CC2)c2ccccc2O1 (stereo not given) | inactive: -4.66%
72 | COc1ccc(-c2oc3ncn4nc(-c5ccccc5O)nc4c3c2-c2ccc(OC)cc2)cc1 | inactive: -2.38%

Row | Structure (SMILES) | activity change, negative = cytotoxicity
73 | Cc1ccccc1-c1nc2scc(CCNS(=O)(=O)c3ccccc3)n2n1 | inactive: 2.03%
74 | Cc1nn2c(=O)cc(COC(=O)c3cccc(NC(=O)CCc4ccccc4)c3)nc2s1 | inactive: 10.3%
75 | Cc1cn2c(=O)cc(COC(=O)c3cccc(NC(=O)c4ccc(C(C)(C)C)cc4)c3)nc2s1 | inactive: 8.89%
76 | CCn1cc2nc(SCC(=O)Nc3ccc(OC)c(OC)c3)n(Cc3ccc(Cl)cc3)c(=O)c2n1 | inactive: 14.5%
77 | CC(=O)c1cccc(NC(=O)C2CCN(C(=O)c3cnn(-c4ccccc4)c3-n3cccc3)CC2)c1 | inactive: -9.13%
78 | Cc1c(C(=O)NCc2ccccc2Cl)sc2nc3n(c(=O)c12)CCCCC3 | inactive: 2.62%
79 | CCOc1ccc(NC(=O)C2CC(=O)NC(=Nc3ccc(Cl)c(Cl)c3)S2)cc1 (stereo not given) | inactive: 3.68%
80 | Cc1c(C(=O)NCc2ccccc2)sc2nc3n(c(=O)c12)CCCCC3 | inactive: 1.06%
81 | COc1cccc(CNC(=O)c2sc3nc(C)cc(C)c3c2-n2cccc2)c1OC | inactive: -17.2%
82 | CCOC(=O)c1ccc(NC(=O)C2CCCN(c3ncnc4onc(-c5ccc(F)cc5)c34)C2)cc1 (stereo not given) | inactive: 0.491%
83 | Cc1ccc(OCC(=O)Nc2cccc(-c3nc4ccccc4s3)c2)cc1 | inactive: 0.9%
84 | Cc1nn(S(=O)(=O)c2ccc(C(C)(C)C)cc2)c(C)c1S(=O)(=O)N1CCCCCC1 | inactive: 0.915%
85 | Cc1ccc(-c2n[nH]c3c2C(c2ccc(C(C)(C)C)cc2)NC3=O)cc1 (stereo not given) | inactive: -0.221%
86 | COCCNC(=O)CCn1c(=O)c2cc(OC)c(OC)cc2n(CC(=O)Nc2ccc(Cl)cc2F)c1=O | inactive: -12.4%
87 | Cc1ccc(NC(=O)c2oc3ccc(S(=O)(=O)N4CCC5(CC4)OCCO5)cc3c2C)cc1C | inactive: -2.41%
88 | Cc1ccc(Cl)cc1N1CCN(C(=O)c2ccc(NC(=O)c3nsc4ccccc34)cc2)CC1 | inactive: -3.27%
89 | CCOC(=O)COc1ccc(CC)cc1C(=O)c1ccn2nc(-c3ccccc3)cc2n1 | inactive: 19.5%
90 | COC(=O)c1sccc1S(=O)(=O)N1CCN(c2cc(Cl)ccc2C)CC1 | inactive: 8.45%
91 | COC(=O)C(Cc1c[nH]c2ccccc12)NC(=O)COc1cccc(C)c1 (stereo not given) | inactive: 2.54%
92 | O=C(COc1ccccc1F)Nc1ccc2oc(-c3cccc(Cl)c3)nc2c1 | inactive: 5.88%
93 | Cc1cccc(CN2C(=O)N(c3ccc(C(C)C)cc3)S(=O)(=O)c3ccccc32)c1 | inactive: 5.22%
94 | Cc1ccc(-c2ccc(=O)n(CC(=O)Nc3ccc(C)cc3Cl)n2)cc1 | inactive: -13.1%
95 | COc1ccccc1-c1nc(SCC(=O)NCc2ccc(C)cc2)c2c(=O)n(C)c(=O)n(C)c2n1 | inactive: -5.67%
